# Out of some 3,200 compounds screened, about 300 (9.4%) showed activity. The list shows a part of the results, in another mix than the full data.
# Tested on: A673/TR/shEF
# Assay: cell viability (LOESS-normalised, relative to median of negative controls) (log2 ratio); higher = more viable cells (less compound effect), active = hit call of the paper (over 3 MAD below the median)
# Settings: treatment time: 72 h
# Outline: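 A673/TR/shEF Ewing sarcoma cells were plated at 1,500 per well in 384-well plates and cultured with or without doxycycline, added 24 h before compounds, to induce EWS-FLI1 shRNA knockdown. Library compounds at two or more concentrations, alongside DMSO controls, were applied for three days. Cell viability was measured by CellTiter-Glo luminescence on an Envision reader. Readings were LOESS-corrected per plate, divided by the median of negative controls and log2-transformed, and hits were wells lying at least three median absolute deviations from the median of all screened wells.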
# [1] = 0.25 µM, library screen: screen2, EWS-FLI1 expression: high (no doxycycline)
# [2] = 0.25 µM, library screen: screen2, EWS-FLI1 expression: low (doxycycline-induced shRNA knockdown)
# [3] = 2.5 µM, library screen: screen2, EWS-FLI1 expression: high (no doxycycline)
# [4] = 2.5 µM, library screen: screen2, EWS-FLI1 expression: low (doxycycline-induced shRNA knockdown)
# [5] = 0.25 µM, library screen: screen1, EWS-FLI1 expression: high (no doxycycline)
# [6] = 0.25 µM, library screen: screen1, EWS-FLI1 expression: low (doxycycline-induced shRNA knockdown)
# [7] = 2.5 µM, library screen: screen1, EWS-FLI1 expression: high (no doxycycline)
# [8] = 2.5 µM, library screen: screen1, EWS-FLI1 expression: low (doxycycline-induced shRNA knockdown)
# [9] = 0.103 µM, library screen: screen3, EWS-FLI1 expression: high (no doxycycline)
# [10] = 0.103 µM, library screen: screen3, EWS-FLI1 expression: low (doxycycline-induced shRNA knockdown)
# [11] = 0.308 µM, library screen: screen3, EWS-FLI1 expression: high (no doxycycline)
# [12] = 0.308 µM, library screen: screen3, EWS-FLI1 expression: low (doxycycline-induced shRNA knockdown)
# [13] = 0.926 µM, library screen: screen3, EWS-FLI1 expression: high (no doxycycline)
# [14] = 0.926 µM, library screen: screen3, EWS-FLI1 expression: low (doxycycline-induced shRNA knockdown)
# [15] = 2.8 µM, library screen: screen3, EWS-FLI1 expression: high (no doxycycline)
# [16] = 2.8 µM, library screen: screen3, EWS-FLI1 expression: low (doxycycline-induced shRNA knockdown)
# [17] = 8.3 µM, library screen: screen3, EWS-FLI1 expression: high (no doxycycline)
# [18] = 8.3 µM, library screen: screen3, EWS-FLI1 expression: low (doxycycline-induced shRNA knockdown)
# [19] = 25 µM, library screen: screen3, EWS-FLI1 expression: high (no doxycycline)
# [20] = 25 µM, library screen: screen3, EWS-FLI1 expression: low (doxycycline-induced shRNA knockdown)
smiles,measurement,setting,value
CCN(CC)CCOC(=O)c1cc(Cl)c(N)cc1OC,cell viability (log2),[1],inactive: 0.171
same,cell viability (log2),[2],inactive: -0.00228
same,cell viability (log2),[3],inactive: 0.0663
same,cell viability (log2),[4],inactive: 0.0639
CC(=O)N[C@@H](Cc1c[nH]c2ccccc12)C(=O)OCc1cc(C(F)(F)F)cc(C(F)(F)F)c1,cell viability (log2),[1],inactive: 0.0922
same,cell viability (log2),[2],inactive: 0.0805
same,cell viability (log2),[3],inactive: 0.152
same,cell viability (log2),[4],inactive: 0.0877
NCCCNCCCCNCCCN,cell viability (log2),[1],inactive: 0.154
same,cell viability (log2),[2],inactive: 0.0565
same,cell viability (log2),[3],inactive: 0.0558
same,cell viability (log2),[4],inactive: 0.0601
CCN(CC)CCNC(=O)c1cc(Cl)c(N)cc1OC,cell viability (log2),[5],inactive: 0.0661
same,cell viability (log2),[6],inactive: -0.0016
same,cell viability (log2),[1],inactive: 0.15
same,cell viability (log2),[2],inactive: 0.17
same,cell viability (log2),[7],inactive: 0.166
same,cell viability (log2),[8],inactive: 0.15
same,cell viability (log2),[3],inactive: 0.193
same,cell viability (log2),[4],inactive: 0.127
CCOc1ccc2ccccc2c1C(=O)N[C@@H]1C(=O)N2[C@@H]1SC(C)(C)[C@@H]2C(=O)O,cell viability (log2),[5],inactive: 0.128
same,cell viability (log2),[6],inactive: 0.0433
same,cell viability (log2),[7],inactive: 0.166
same,cell viability (log2),[8],inactive: -0.038
CN(C)C/C=C(/c1ccc(Br)cc1)c1cccnc1,cell viability (log2),[1],inactive: 0.0905
same,cell viability (log2),[2],inactive: 0.0837
same,cell viability (log2),[3],inactive: 0.14
same,cell viability (log2),[4],inactive: 0.112
Cn1cnc2c1c(=O)[nH]c(=O)n2C,cell viability (log2),[5],inactive: 0.0857
same,cell viability (log2),[6],inactive: 0.111
same,cell viability (log2),[1],inactive: 0.271
same,cell viability (log2),[2],inactive: 0.0982
same,cell viability (log2),[7],inactive: 0.156
same,cell viability (log2),[8],inactive: 0.18
same,cell viability (log2),[3],inactive: 0.152
same,cell viability (log2),[4],inactive: 0.0905
N#C/C(=C\c1c[nH]c2ccccc12)C(=O)c1ccc(O)c(O)c1,cell viability (log2),[1],inactive: 0.155
same,cell viability (log2),[2],inactive: 0.0215
same,cell viability (log2),[3],inactive: 0.202
same,cell viability (log2),[4],inactive: 0.127
CCN1CCN(CC(O)COc2cc(C)c(Cl)c(C)c2)CC1 (stereo not given),cell viability (log2),[5],inactive: 0.082
same,cell viability (log2),[6],inactive: 0.0372
same,cell viability (log2),[7],inactive: 0.096
same,cell viability (log2),[8],inactive: 0.29
CC1OC(OC2C(O)COC(OC3C(C)OC(OC4C(OC(=O)C56CCC(C)(C)CC5C5=CCC7C8(C)CCC(OC9OC(CO)C(O)C(O)C9O)C(C)(C)C8CCC7(C)C5(C)CC6O)OCC(O)C4O)C(O)C3O)C2O)C(O)C(O)C1O (stereo not given),cell viability (log2),[5],inactive: 0.0486
same,cell viability (log2),[6],inactive: 0.0258
same,cell viability (log2),[7],inactive: 0.0372
same,cell viability (log2),[8],inactive: 0.223
CC1=NN(c2ccccc2)C(=O)C1,cell viability (log2),[5],inactive: 0.122
same,cell viability (log2),[6],inactive: 0.0544
same,cell viability (log2),[7],inactive: 0.116
same,cell viability (log2),[8],inactive: 0.125
NC(N)=NCCC[C@H](N)C(=O)O,cell viability (log2),[1],inactive: 0.054
same,cell viability (log2),[2],inactive: 0.0718
same,cell viability (log2),[3],inactive: 0.081
same,cell viability (log2),[4],inactive: 0.0583
COc1ccc2c(c1)OC1CC1(c1ccccc1OC)C2=O (stereo not given),cell viability (log2),[5],inactive: 0.0685
same,cell viability (log2),[6],inactive: 0.0535
same,cell viability (log2),[7],inactive: 0.0294
same,cell viability (log2),[8],inactive: 0.0412
C[S+]([O-])c1ccc(-c2nc(-c3ccc(F)cc3)c(-c3ccncc3)[nH]2)cc1 (stereo not given),cell viability (log2),"0.025 µM, library screen: screen1, EWS-FLI1 expression: high (no doxycycline)",0.29
same,cell viability (log2),"0.025 µM, library screen: screen1, EWS-FLI1 expression: low (doxycycline-induced shRNA knockdown)",inactive: 0.136
same,cell viability (log2),[5],inactive: 0.263
same,cell viability (log2),[6],inactive: 0.121
same,cell viability (log2),[7],active: -0.235
same,cell viability (log2),[8],inactive: 0.238
same,cell viability (log2),"25 µM, library screen: screen1, EWS-FLI1 expression: high (no doxycycline)",active: -0.108
same,cell viability (log2),"25 µM, library screen: screen1, EWS-FLI1 expression: low (doxycycline-induced shRNA knockdown)",inactive: 0.274
CC1=CC(=O)C(C(C)C)=CC1=O,cell viability (log2),[5],inactive: -0.0353
same,cell viability (log2),[6],inactive: 0.0114
same,cell viability (log2),[7],inactive: 0.0596
same,cell viability (log2),[8],inactive: 0.0471
OCc1cccnc1,cell viability (log2),[5],inactive: 0.0897
same,cell viability (log2),[6],inactive: 0.0782
same,cell viability (log2),[7],inactive: 0.155
same,cell viability (log2),[8],inactive: -0.00172
O=C(O)Cc1c[nH]c2ccc(O)cc12,cell viability (log2),[1],inactive: 0.0568
same,cell viability (log2),[2],inactive: 0.0713
same,cell viability (log2),[3],inactive: 0.0127
same,cell viability (log2),[4],inactive: 0.139
CC(C)[N+](C)(CCOC(=O)C1c2ccccc2Oc2ccccc21)C(C)C,cell viability (log2),[5],inactive: 0.116
same,cell viability (log2),[6],inactive: 0.12
same,cell viability (log2),[1],inactive: 0.123
same,cell viability (log2),[2],inactive: 0.000468
same,cell viability (log2),[7],inactive: 0.226
same,cell viability (log2),[8],inactive: 0.173
same,cell viability (log2),[3],inactive: 0.233
same,cell viability (log2),[4],inactive: 0.0645
CN[C@@H]1[C@H](O[C@H]2[C@H](O[C@H]3[C@H](O)[C@@H](O)[C@H](N=C(N)N)[C@@H](O)[C@@H]3N=C(N)N)O[C@@H](C)[C@]2(O)CO)O[C@@H](CO)[C@H](O)[C@H]1O,cell viability (log2),[5],inactive: 0.0822
same,cell viability (log2),[6],inactive: 0.116
same,cell viability (log2),[7],inactive: 0.138
same,cell viability (log2),[8],inactive: 0.136
Cc1onc(-c2ccccc2Cl)c1C(=O)N[C@@H]1C(=O)N2[C@@H]1SC(C)(C)[C@@H]2C(=O)O,cell viability (log2),[9],inactive: 0.109
same,cell viability (log2),[10],inactive: 0.0531
same,cell viability (log2),[5],inactive: 0.106
same,cell viability (log2),[6],inactive: 0.0499
same,cell viability (log2),[11],inactive: 0.113
same,cell viability (log2),[12],inactive: 0.0899
same,cell viability (log2),[13],inactive: 0.0631
same,cell viability (log2),[14],inactive: 0.0718
same,cell viability (log2),[7],inactive: 0.219
same,cell viability (log2),[8],inactive: 0.201
same,cell viability (log2),[15],inactive: -0.00707
same,cell viability (log2),[16],inactive: 0.089
same,cell viability (log2),[17],inactive: 0.0622
same,cell viability (log2),[18],inactive: 0.105
same,cell viability (log2),[19],inactive: 0.0853
same,cell viability (log2),[20],inactive: 0.0801
C#Cc1cccc(Nc2ncnc3cc(OCCOC)c(OCCOC)cc23)c1,cell viability (log2),[9],inactive: 0.107
same,cell viability (log2),[10],inactive: 0.0915
same,cell viability (log2),[11],inactive: 0.189
same,cell viability (log2),[12],inactive: 0.0523
same,cell viability (log2),[13],inactive: 0.0696
same,cell viability (log2),[14],inactive: 0.0933
same,cell viability (log2),[15],inactive: 0.0439
same,cell viability (log2),[16],inactive: 0.0596
same,cell viability (log2),[17],inactive: 0.105
same,cell viability (log2),[18],inactive: 0.0233
same,cell viability (log2),[19],inactive: -0.0778
same,cell viability (log2),[20],inactive: -0.0451
